Assays:
[1] = molecular target: T1, EGFRvIII peptide-OVA (Homo sapiens, UniProt P00533, DELINS30-297G); experiment: Hybridoma supernatant ELISA on EGFRvIII peptide-OVA coated plates; assay type: binding; conditions: clone supernatant
T1 construct: 207 μg of EGFRvIII PEP3 was reduced; host or cells: synthetic peptide, chemical conjugation
Method: (§1) Cells were plated in flat bottomed 96-well tissue culture plates at 4×10^4 cells per well. Cultures were maintained in HAT (hypoxanthine, aminopterin and thymidine) supplemented media for 2 weeks before transfer to HT (hypoxanthine and thymidine) supplemented media. Hybridomas were selected for by survival in HAT medium and supernatants were screened for antigen reactivity by ELISA. The ELISA format entailed incubating supernatants on antigen coated plates (EGFRvIII peptide-OVA coated plates and wild type EGFr peptide-OVA coated plates as a counter screen) and detecting EGFRvIII-specific binding using horseradish peroxidase (HRP) labeled mouse anti-human IgG (see Table 2.1).

[2] = molecular target: T2, EGFRvIII receptor in NR6 M cells (Homo sapiens, UniProt P00533, DELINS30-297G); experiment: Internalization of EGFRvIII receptor by recombinant mAbs (FACS); assay type: cell-based
T2 construct: NR6 M cells stably expressing full length EGFRvIII; expressed in transfected cells; host or cells: NR6 cells (NR6 M)
Method: XenoMax derived IgG1 recombinant antibodies were expressed, purified and quantitated as described previously. Antibodies were further assayed for their ability to internalize the EGFRvIII receptor in NR6 M cells. […] The cells were washed with cold 10% FCS in PBS and secondary antibody (SS Alexa antihuman IgG Fab) at 3 μg/ml Fab was added and incubated for 7 mins on ice. The cells were washed with cold 10% FCS in PBS once and then resuspended in cold media. Next, two sets of the triplicate were incubated at 37° C. and the remaining set was incubated at 4° C. for 1 hr. After that the cells incubated at 4° C. and one set of the cells incubated at 37° C. were treated with glutathione (as previously mentioned) for 1 hr on ice. Then the cells were washed and resuspended in 100 μl of cold 1% FCS in PBS and analyzed by FACS. The % internalization was calculated from the geometric mean obtained from the FACS analysis [(mean at 37° C. with glutathione−mean at 4° C. with glutathione)/(mean at 37° C. without glutathione−mean at 4 C with glutathione)].

[3] = tested on: EGFRvIII; experiment: Affinity for EGFRvIII; assay type: binding; conditions: in words
[4] = molecular target: T3, EGFRvIII expressing cells (H1477) (Homo sapiens, UniProt P00533, DELINS30-297G); experiment: Selectivity for EGFRvIII expressing cells compared to ABX-EGF; assay type: binding
T3 construct: host or cells: H1477 cells

[5] = tested on: wild type EGFr peptide-OVA; experiment: Hybridoma supernatant ELISA counter screen on wild type EGFr peptide-OVA coated plates; assay type: binding; conditions: clone supernatant
Method: as §1

B1: 13.1.2: subclone of hybridoma 13.1; human anti-EGFRvIII antibody, heavy/light chain SEQ ID NO: 138/140 (antibody, listed as Homo sapiens)
VH: QVQLVESGGGVVQPGRSLRLSCAASGFTFSSYGMHWVRQAPGKGLEWVAVIWYDGSNKYYVDSVKGRFTISRDNSKNTLYLQMNSLRAEDTAVYYCARDGWQQLAPFDYWGQGTLVTVSSASTKGPSVFPLAPSSKSTSGGTAALGCLVKDYFPEPVTVSWNSGALTSGV
light: [about 100 residues omitted]QLPRTFGQGTKVEIKRTVAAPSVFIFPPSDEQLKSGTASVVCLLNNFYPREAKVQWKVDNALQSGNSQ
**Q.** Which “OD #2 muEGFr” value [1] does the source give for B1 here?
**A.** 1.272

**Q.** And the “OD #1 cloning plate” value ([1]; cloning plate)?
**A.** 2.248

**Q.** And the “FACS Geometric mean With glutathione 4° C.” value ([2]; 0.25 μg/ml antibody, 1 hr)?
**A.** 5.38

**Q.** And the “FACS Geometric mean With glutathione 37° C.” value ([2]; 0.25 μg/ml antibody, 1 hr)?
**A.** 19.19

**Q.** What about the internalization by cells ([2]; in words) of the same molecule?
**A.** internalized well

**Q.** And the “affinities for EGFRvIII” value [3]?
**A.** very high affinities

**Q.** What about the “selectivity for EGFRvIII expressing cells (H1477) as compared to ABX-EGF” value [4] of the same molecule?
**A.** superior selectivity

**Q.** And the “OD #2 EGFr” value [5]?
**A.** 0.041
